# Reference: the supplement of paper PMC3334620
# Over roughly 33,000 sequences, “E-score (-0.5 to 0.5)” has its median near -0.01; the highest 2% begin near 0.26. Some of the results follow.
# Molecular target: Ste12 (UniProt P13574)
# Assay: PBM E-score (8-mer binding enrichment) (E-score (-0.5 to 0.5)); higher = stronger / more preferred TF binding; most listed sequences are background and not binding sites
# Settings: protein concentration: 200 nM; construct: GST-DNA-binding domain
# Method in brief: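 Detection of bound protein used fluorescent anti-GST, with scans normalised by masliner. The proteins were GST-tagged yeast transcription factors applied at about 100-200 nM to universal all-10-mer Agilent arrays made double-stranded by primer extension. Each ungapped eight-base word, pooled with its reverse complement, was scored with an E-score from the Universal PBM Analysis Suite.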
row,Sequence,PBM E-score
1,AGACCAAA,0.0504
2,CAAACATA,0.23
3,ATGTTCGG,0.114
4,ACGTGATC,-0.0673
5,GCAATTAA,0.167
6,AAGGAGAG,-0.228
7,CAGTCGGG,0.0633
8,TACGCACA,-0.00528
9,CCACTCGC,-0.0268
10,ACAAATAA,0.252
11,CGCTGGGC,-0.183
12,CGATCGCA,0.0906
13,AGGTCCGC,-0.0607
14,ATGCAGGG,-0.111
15,AAAGCTAA,0.0285
16,GGACCTGA,-0.0635
17,TGGCCACA,0.00045
18,GCTATCAC,-0.198
19,GTACGCGA,-0.132
20,TCTCAGCA,0.0504
21,ACAAATTG,0.177
22,ATATCCGG,0.0217
23,CCTGGTTA,-0.059
24,GAACCGGA,-0.0365

row,Sequence,PBM E-score
1,CGACCGAC,-0.00449
2,TGGGCGAA,-0.091
3,TATTCGGA,0.122
4,CAAAGACA,-0.0628
5,ACGTCCTA,-0.151
6,GAACGCAC,0.0691
7,AGGATGCA,-0.0775
8,ATCCGTTA,0.0767
9,AGTAATCA,-0.132
10,TCAGAAAA,0.0129
11,CCTGCTGA,0.202
12,CCCCTCTA,-0.16
13,AAGGTCAC,-0.0177
14,AACTACAG,0.0408
15,GAGCAAGC,-0.164
16,ACTTCTTC,0.0988
17,AATCTAGT,0.0842
18,AGGGGGAA,-0.147
19,CACCAGGA,0.0351
20,CCGAACAA,0.217
21,AAGGTTGA,-0.0139
22,CTCAGCAG,-0.121
23,CGTTCACA,0.0262
24,GCCAGGGC,-0.211

row,Sequence,PBM E-score
1,CTCTGCCC,-0.141
2,AAGGACTA,-0.127
3,AGCGGGCC,-0.053
4,CGCCCTCC,-0.144
5,TACGGTGA,0.132
6,ATTCAGGG,0.0985
7,CGCATTGA,0.153
8,CGGATGAC,-0.0265
9,CTCTGAAC,-0.092
10,CGCTTGAC,0.0189
11,GACCCTAA,-0.0649
12,GAGTTTAA,0.162
13,CGTATTAC,0.0975
14,GTGACGGA,0.0546
15,CAGCCGGG,-0.0945
16,ATACAGCA,-0.0378
17,TACTTGGA,-0.12
18,AAAAGACT,-0.128
19,AATGTCAT,0.0301
20,GACGAGAC,-0.0196
21,CGCTCTAA,0.00821
22,TATGTTAA,0.119
23,GGCCCTGA,-0.123
24,CGCGACTA,0.195

row,Sequence,PBM E-score
1,ATGCTCCC,-0.17
2,GTTTTCCA,0.093
3,TAGAGTCA,-0.156
4,CAAGGAAA,0.00394
5,ATCGGACG,-0.16
6,GGTGAAGA,-0.0834
7,ACTAGCGG,-0.109
8,CGAGGGGC,0.0568
9,ATTAGTTC,0.151
10,ACCTTTCC,-0.0347
11,CCCACTCG,-0.182
12,CGCCAATC,0.0688
13,ACCGTCAG,-0.0862
14,CAAACTCA,0.139
15,TAGGGCCA,-0.246
16,AAAAGTTG,0.127
17,TAGGCTGA,0.078
18,CATATATG,0.18
19,CGCAGGAC,-0.135
20,AGCAGGGG,-0.164
21,ATGGTGCC,-0.077
22,ACCAACGG,-0.0145
23,AGCGGTTG,-0.133
24,CGGCAGAC,-0.177

row,Sequence,PBM E-score
1,AACGTGCT,0.0409
2,AAATAATA,0.257
3,GCACCCGA,0.0237
4,AGACTTAT,-0.0276
5,CCCCGCCA,0.38
6,AGTATGCG,-0.13
7,CAGTTATG,0.132
8,AGGCGTCG,-0.26
9,AACCTTAG,-0.099
10,AACTCTCG,-0.0681
11,TGTGCTAA,0.18
12,GGACTTTA,0.0546
13,TAAATACA,0.179
14,TCGTGAAA,0.177
15,GGACCCGA,-0.0164
16,GTGACAAA,0.173
17,CACAGTCC,-0.0123
18,AATTTTGT,0.208
19,AGCACGAC,-0.0807
20,AATTCAGC,0.031
21,ATCCTGGC,-0.0346
22,GCACTAAC,-0.198
23,GAAAGGGA,0.138
24,AGCGGCTG,-0.146

row,Sequence,PBM E-score
1,GAACTCAA,-0.0569
2,CTGTGCTC,0.0387
3,GGCTACAA,0.0668
4,ACGAATGA,0.135
5,TGACAGCA,0.0883
6,ACGACGTG,-0.0844
7,CACACTAG,-0.0877
8,CGACTTGA,-0.108
9,GAATTGAA,0.278
10,CTAGCCTC,-0.138
11,ACCAGTGA,-0.165
12,ACTGAGCG,-0.0397
13,GGCGTGAA,-0.113
14,CAGCGGCA,0.0718
15,GCGTATCA,0.171
16,AAGTCCAC,-0.23
17,AATCGGAC,-0.0158
18,CCACTGTA,-0.0483
19,ATGGTGGG,-0.0923
20,CGCGCAGA,0.0999
21,CAGGCGAG,-0.215
22,AGGACATC,0.0881
23,TACTTACA,0.151
24,TAATGAAA,0.155

row,Sequence,PBM E-score
1,GCGGCATA,0.00072
2,AACTCCTC,-0.255
3,GCCCTACC,-0.0457
4,CCGCCGTC,-0.159
5,ATGGAGCA,-0.0515
6,GTTCAAGA,-0.0182
7,GCCTACCC,-0.172
8,ATCGGAAA,0.21
9,AGCAGACT,0.0216
10,TATATACA,0.132
11,ACCCGGCG,-0.107
12,ACCCAAAA,0.13
13,CAAGGCAA,-0.223
14,GGTACGTA,-0.137
15,CGTGCGAA,-0.00328
16,GCCTTCGC,0.0264
17,CCATATCC,0.0086
18,AGGGCGAT,-0.229
19,GCTCGAGC,0.183
20,AATAACTG,0.0809
21,ACGGGAAA,0.0814
22,GACAAGGC,-0.24
23,ACAGGCTG,-0.0716
24,CGCCTGAA,0.102

row,Sequence,PBM E-score
1,GAATTTAC,0.0246
2,ACAATGAC,-0.101
3,ATAGGTCA,-0.0255
4,AGGGGGTG,-0.307
5,CACACCCC,-0.113
6,ACATACGT,-0.177
7,CTATTTCC,0.0739
8,CAGACTGA,0.127
9,CACGATGG,-0.217
10,AATGCGAG,-0.064
11,GCACCTAA,-0.0248
12,AGTCGGTG,-0.0709
13,AGAAGTGG,-0.083
14,TATTAACA,0.164
15,AACAATCT,0.104
16,TGACATAA,0.268
17,AAGGTAAA,0.189
18,CGCGTCGC,0.0419
19,ACCATTAT,0.0811
20,CATGTGAC,-0.101
21,AACATAGA,0.287
22,AACTTCTT,-0.105
23,ACCGCAGG,0.059
24,TAAACGAA,0.02

row,Sequence,PBM E-score
1,ACATGTAT,-0.0408
2,CGCCCTCA,-0.166
3,CGCAAGCA,-0.154
4,AGATGACC,-0.128
5,ATGAAGGC,-0.1
6,CTTAACCA,0.176
7,GGACTAGA,-0.124
8,ACGCGAAT,0.0971
9,AGCTGTGC,-0.129
10,AAGCATGC,-0.116
11,GAAAAGAA,0.209
12,CAGGATGC,-0.0687
13,CGGTAGCA,-0.114
14,ACGCGGCA,-0.00717
15,AGGGCCGA,-0.0149
16,CTGCTTTC,-0.0585
17,ATGGACAC,-0.0721
18,AAGTAAAT,0.261
19,AGCAAGAG,-0.0786
20,GCATATGC,-0.088
21,ACGCCGGC,0.21
22,ACTGAACA,0.0671
23,GAGGATAA,0.0948
24,TACACATA,-0.0354

row,Sequence,PBM E-score
1,AGGTAGCG,-0.231
2,AGGGCTGA,-0.134
3,ATAGATAT,0.197
4,ACAACCTG,-0.016
5,ATACACCA,-0.0593
6,AGTGGGAG,-0.0202
7,AGTGTCGC,0.0423
8,GCCTCGAC,0.0326
9,ACGTAAGG,-0.196
10,CCATACTA,0.00663
11,CTCGTACC,-0.0643
12,ATTTGATA,0.258
13,AGCATACT,-0.0969
14,AGATCTAG,-0.0252
15,TCTGCAGA,-0.134
16,TCTACGAA,-0.129
17,GTATTTAA,0.249
18,ATTTTCCC,0.173
19,GGCACACC,-0.109
20,CGACTAAG,-0.0345
21,CGTCCCGA,-0.065
22,CAGAACGG,-0.162
23,ACACGTAT,0.0228
24,CCCTAGAA,0.056

row,Sequence,PBM E-score
1,CTGAAACC,0.47
2,AAACAAAT,0.28
3,GCAAAACC,0.0345
4,CAATTACG,0.0434
5,AATCACAG,0.0535
6,ACTGATCC,0.058
7,AACCACCC,0.0945
8,GACTATAA,0.0113
9,GCCCAGCC,0.0397
10,AAAACGGT,0.152
11,ATTTTGAC,0.202
12,CTACCGAC,-0.0631
13,CCCGAACA,0.128
14,GGTTGCAA,0.0835
15,AGAATGTA,0.0693
16,ACGCCGCG,0.00025
17,TACGCGGA,-0.103
18,AATAGCCC,-0.0699
19,ATTGGTTA,0.241
20,CGGAAATA,0.217
21,AACTGCTT,-0.081
22,ACGATCAC,-0.0748
23,ATGCTGGC,-0.00831
24,CGAAATTC,0.158

row,Sequence,PBM E-score
1,AAGTACCT,-0.297
2,ACGATAGA,-0.15
3,ACGCACGT,-0.159
4,AAAAGAAT,0.266
5,GACGCGAA,0.0261
6,AGATCCGG,-0.0245
7,CCATGTTC,-0.0544
8,ACCACTCC,0.16
9,AGAAGATG,0.0434
10,ACAGGTAT,-0.00823
11,AGCCTTTA,0.0298
12,GTGCGAAC,-0.216
13,ATCGCGGA,-0.0253
14,CTACAGTC,-0.21
15,TACGACAA,0.0899
16,CGCGTACC,-0.113
17,CCCCGTGC,0.149
18,CCTTTATA,-0.034
19,ACATAACG,0.0659
20,ATTTGCGA,0.0925
21,CCTCCACG,-0.253
22,CATCACCA,0.106
23,AAGGGGAG,-0.0849
24,CGGGTAGA,-0.0167

row,Sequence,PBM E-score
1,GTTTGACA,0.0294
2,CCCGCCGC,0.31
3,TGAAAGAA,0.131
4,CTGCAGTA,-0.213
5,TCTAAAAA,0.235
6,ACCTTTTC,0.00718
7,ACGCTGGA,-0.0162
8,CTGTTATC,0.101
9,CAGGGAGG,-0.115
10,CCACGACA,-0.104
11,GATATTTA,0.169
12,CGTCAACC,-0.288
13,TAGTTGCA,0.12
14,GTGTCCAA,-0.221
15,GTAATTAC,0.0645
16,ACCGTAGC,-0.104
17,CAGAAGCG,0.00541
18,CGTGCGGC,-0.153
19,GTTTTAAA,0.378
20,GCGGGTGA,0.0419
21,GGAGAATA,0.0628
22,ACCTCATG,-0.0225
23,GCCGCAGC,0.00254
24,TTTACAAA,0.294

row,Sequence,PBM E-score
1,AGATGGTG,-0.0651
2,ATTGAAAT,0.233
3,ATTGCAGG,-0.0276
4,AGTATCAA,0.217
5,CCGCTTCG,-0.179
6,CGGTTGGA,-0.0539
7,AACAAGCA,0.116
8,CCGGCGCG,0.0515
9,TATGTAAA,0.232
10,ATCATCAG,-0.128
11,ACGGACGC,-0.251
12,ACCGCGCA,0.126
13,GAACGAGA,0.00429
14,GTTGGCCA,-0.046
15,CAACGCGA,-0.00853
16,ATTCGGTC,0.0374
17,GAGACAGA,0.0576
18,CCACTACG,-0.142
19,GGTGGGCA,0.0362
20,AAACGTCA,0.0944
